The other results are listed elsewhere or left out. Read counts after selection give these values, which scatter widely. Each score is taken over the longer molecules that contain the sequence shown.
Key:
Test in all cases: 6-mer SELEX enrichment z-score vs GST control; IMP3 is the RNA-binding protein IGF2BP3; higher = more enriched by binding
IMP3 KH1-4 = conditions: construct: KH1-4 (164-579); SELEX round: R4
Procedure: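 SELEX-seq with GST-tagged IMP3 KH1-4 (Pro164-Lys579) and an N40 RNA pool, round 4. 6-mer z-score of sequence-tag enrichment normalised to the corresponding GST SELEX round; RNA k-mers written as DNA (T for U).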

IMP3 RRM1-2 = conditions: construct: RRM1-2 (1-163); SELEX round: R2
Procedure: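 SELEX-seq with GST-tagged IMP3 RRM1-2 (Met1-Asn163) and an N40 RNA pool, round 2. 6-mer enrichment z-score normalised to GST SELEX. RNA written as DNA (T = U).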

IMP3 full-length = IMP3 full-length (UniProt O00425); conditions: construct: FL IMP3 (1-579); SELEX round: R4
Procedure: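 SELEX-seq with GST-tagged full-length IMP3 and an N40 RNA pool, round 4. Each 6-mer is scored as an enrichment z-score of sequence tags containing it, normalised to the matching GST SELEX round. RNA written as DNA (T = U).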

IMP3 KH1-2 = conditions: construct: KH1-2 (164-376); SELEX round: R4
Procedure: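 SELEX-seq with GST-tagged IMP3 KH1-2 (Pro164-Phe376) and an N40 RNA pool, round 4 (stringent 300/600 mM KCl washes). 6-mer z-score of sequence-tag enrichment normalised to the corresponding GST SELEX round; RNA k-mers written as DNA (T for U).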

IMP3 KH3-4 = conditions: construct: KH3-4 (377-579); SELEX round: R4
Procedure: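 SELEX-seq with GST-tagged IMP3 KH3-4 (Pro377-Lys579) and an N40 RNA pool, round 4. 6-mer z-score of sequence-tag enrichment normalised to the corresponding GST SELEX round; RNA k-mers written as DNA (T for U).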

IMP3 RRM1-2, sequence (chain, as listed by the source): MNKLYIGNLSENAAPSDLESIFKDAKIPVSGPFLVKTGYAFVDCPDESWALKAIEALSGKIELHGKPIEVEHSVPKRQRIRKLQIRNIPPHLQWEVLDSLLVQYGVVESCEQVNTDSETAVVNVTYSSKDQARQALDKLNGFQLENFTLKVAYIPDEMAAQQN
IMP3 KH1-2, sequence (chain, as listed by the source): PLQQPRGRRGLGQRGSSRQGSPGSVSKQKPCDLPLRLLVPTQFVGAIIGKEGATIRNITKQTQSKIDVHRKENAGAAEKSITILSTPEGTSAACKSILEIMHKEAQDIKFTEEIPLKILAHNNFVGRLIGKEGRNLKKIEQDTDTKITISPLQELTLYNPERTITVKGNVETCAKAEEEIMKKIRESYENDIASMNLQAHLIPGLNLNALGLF
IMP3 KH1-4, sequence (chain, as listed by the source): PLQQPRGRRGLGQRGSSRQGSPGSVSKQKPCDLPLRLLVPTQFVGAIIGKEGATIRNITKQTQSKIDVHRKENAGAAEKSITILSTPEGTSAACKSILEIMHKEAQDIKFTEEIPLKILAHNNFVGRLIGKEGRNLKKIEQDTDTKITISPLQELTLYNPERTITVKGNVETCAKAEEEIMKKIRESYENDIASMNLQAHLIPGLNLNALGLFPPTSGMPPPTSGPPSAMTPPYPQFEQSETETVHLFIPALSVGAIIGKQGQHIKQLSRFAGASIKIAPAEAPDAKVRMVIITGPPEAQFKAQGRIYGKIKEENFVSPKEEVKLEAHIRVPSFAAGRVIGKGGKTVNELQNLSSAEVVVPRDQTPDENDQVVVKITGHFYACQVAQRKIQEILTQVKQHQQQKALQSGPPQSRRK
IMP3 KH3-4, sequence (chain, as listed by the source): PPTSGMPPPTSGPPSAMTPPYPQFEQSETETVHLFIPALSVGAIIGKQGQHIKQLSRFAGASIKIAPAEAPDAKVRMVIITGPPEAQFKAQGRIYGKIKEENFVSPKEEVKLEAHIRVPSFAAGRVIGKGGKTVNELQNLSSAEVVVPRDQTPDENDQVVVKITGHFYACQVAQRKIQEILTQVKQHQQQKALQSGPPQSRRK
UniProt O00425, sequence (O00425 whole entry): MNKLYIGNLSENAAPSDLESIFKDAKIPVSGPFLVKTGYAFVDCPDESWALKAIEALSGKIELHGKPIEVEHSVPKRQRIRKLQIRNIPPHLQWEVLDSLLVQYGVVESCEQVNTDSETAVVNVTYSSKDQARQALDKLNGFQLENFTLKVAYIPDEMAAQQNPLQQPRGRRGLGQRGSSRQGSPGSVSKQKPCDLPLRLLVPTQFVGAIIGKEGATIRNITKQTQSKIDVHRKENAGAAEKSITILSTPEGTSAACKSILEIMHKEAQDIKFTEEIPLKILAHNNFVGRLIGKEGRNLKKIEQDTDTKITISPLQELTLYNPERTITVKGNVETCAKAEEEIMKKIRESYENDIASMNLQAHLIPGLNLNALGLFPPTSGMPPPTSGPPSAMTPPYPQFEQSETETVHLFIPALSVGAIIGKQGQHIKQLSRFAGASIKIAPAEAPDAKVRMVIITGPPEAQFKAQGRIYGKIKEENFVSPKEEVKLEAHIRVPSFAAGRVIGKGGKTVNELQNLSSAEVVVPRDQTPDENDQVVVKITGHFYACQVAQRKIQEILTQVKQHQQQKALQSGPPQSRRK

Row | Sequence | 6-mer SELEX enrichment z-score (IMP3 KH1-4) | 6-mer SELEX enrichment z-score (IMP3 RRM1-2) | 6-mer SELEX enrichment z-score (IMP3 full-length) | 6-mer SELEX enrichment z-score (IMP3 KH1-2) | 6-mer SELEX enrichment z-score (IMP3 KH3-4)
1 | TCAGAT | 0.714 | 0.647 | 0.836 | 0.723 | 0.747
2 | TCGAGA | -1.56 | -0.215 | -0.863 | -1.38 | -1.2
3 | GCGCCC | -0.828 | -0.355 | 0.117 | -0.506 | -1.13
4 | ACAACT | 0.646 | 0.396 | 0.112 | 0.848 | 0.402
5 | ACAATC | 0.408 | 2.21 | 1.13 | 0.584 | -0.097
6 | TATTGC | 0.75 | 0.128 | 0.13 | 0.655 | 0.701
7 | CTAGAA | -0.036 | -0.88 | -0.715 | -0.208 | 0.114
8 | GGTCGA | -0.174 | 0.027 | 0.242 | -0.122 | 0.011
9 | GCGTAA | -2.94 | -0.412 | -1.9 | -2.75 | -2.6
10 | ACATGC | 0.922 | 1.02 | 1.15 | 0.761 | 0.358
11 | TATCAC | 1.15 | 1.22 | 0.982 | 1.26 | 0.87
12 | AAGTAT | 0.107 | -0.299 | -0.367 | -0.026 | 0.463
13 | GTTCCC | -0.442 | -0.016 | -0.443 | -0.385 | -0.774
14 | CACCTC | -0.728 | 0.213 | -0.322 | -0.613 | -1.18
15 | GTATTG | 0.046 | 0.142 | -0.08 | 0.063 | 0.224
16 | TTGTTC | 0.411 | 0.355 | 0.134 | 0.279 | 0.361
17 | ACAGAA | 1.12 | -0.022 | 1.07 | 1.64 | 1.46
18 | TCTGCT | 0.261 | 0.389 | 0.156 | 0.284 | 0.142
19 | TAGCTG | -0.092 | 0.098 | -0.132 | -0.051 | -0.004
20 | CTAAGT | -0.137 | -0.093 | -0.308 | -0.145 | -0.054
21 | AACTGT | 0.313 | -0.624 | -0.414 | 0.166 | 0.228
22 | CGCTTG | -0.45 | 0.208 | -0.149 | -0.332 | -0.364
23 | ATGTAT | 0.845 | -0.003 | -0.005 | 0.577 | 1.07
24 | CTGAAT | 0.334 | -0.588 | -0.474 | 0.099 | 0.343
25 | ACTTCG | -0.346 | 0.127 | -0.237 | -0.329 | -0.423
26 | GGTCAC | -0.034 | 0.197 | 0.533 | -0.117 | -0.171
27 | GACCGA | -1.97 | -1.67 | -1.59 | -1.73 | -1.92

Row | Sequence | 6-mer SELEX enrichment z-score (IMP3 KH1-4) | 6-mer SELEX enrichment z-score (IMP3 RRM1-2) | 6-mer SELEX enrichment z-score (IMP3 full-length) | 6-mer SELEX enrichment z-score (IMP3 KH1-2) | 6-mer SELEX enrichment z-score (IMP3 KH3-4)
28 | AGAGGG | 0.885 | -0.353 | 0.292 | 1.12 | 1.15
29 | ACCACG | -0.712 | 0.511 | -0.194 | -0.872 | -1.25
30 | CGTTCC | -0.307 | 0.037 | -0.137 | -0.284 | -0.607
31 | AGCCCT | -0.653 | -0.37 | -0.578 | -0.592 | -0.92
32 | AGAAAA | 0.045 | -2.29 | -1.78 | 0.014 | 1.51
33 | TGACGA | -0.801 | -1.11 | -0.883 | -0.841 | -0.703
34 | GAGGCG | 0.472 | 0.002 | 0.781 | 0.589 | 0.747
35 | CGGAAC | -0.539 | -0.841 | -0.211 | -0.705 | -0.746
36 | TATTGG | 0.269 | 0.335 | 0.171 | 0.253 | 0.444
37 | TACTGA | 0.342 | -0.485 | -0.408 | 0.419 | 0.367
38 | CTAGCA | -0.033 | 0.287 | 0.17 | -0.06 | -0.163
39 | GCCAGT | 0.516 | -0.13 | 0.493 | 0.302 | 0.223
40 | CGTGTG | -0.265 | -0.048 | -0.295 | -0.344 | -0.262
41 | GCGTCA | -0.731 | 0.416 | 0.514 | -0.603 | -0.568
42 | GATAGT | 0.197 | -0.111 | -0.073 | 0.074 | 0.345
43 | ATTTGC | 0.675 | 0.12 | 0.038 | 0.502 | 0.639
44 | AACTCG | -1.74 | -0.477 | -0.98 | -1.6 | -1.68
45 | GTAGTT | -0.739 | 0.431 | -0.487 | -0.644 | -0.529
46 | GAAGAC | -0.211 | -1.37 | -0.792 | -0.298 | -0.262
47 | CCCACA | -0.964 | 0.397 | -0.401 | -0.64 | -1.9
48 | AGTACT | -0.585 | -0.021 | -0.36 | -0.554 | -0.527
49 | GGAGAC | 0.025 | -0.819 | -0.225 | 0.062 | -0.089
50 | TATTGT | 0.768 | 0.332 | 0.138 | 0.525 | 0.898
51 | AATGCG | -0.681 | -0.554 | -0.719 | -0.72 | -0.369
52 | TAGGAT | 0.469 | 0.482 | 0.065 | 0.33 | 0.712
53 | TCAAGG | -0.447 | 0.538 | 0.304 | -0.407 | -0.199
54 | TCAAAG | -0.789 | 0.048 | -0.256 | -0.801 | -0.581

Row | Sequence | 6-mer SELEX enrichment z-score (IMP3 KH1-4) | 6-mer SELEX enrichment z-score (IMP3 RRM1-2) | 6-mer SELEX enrichment z-score (IMP3 full-length) | 6-mer SELEX enrichment z-score (IMP3 KH1-2) | 6-mer SELEX enrichment z-score (IMP3 KH3-4)
55 | GGCTCC | 0.123 | 0.307 | 0.704 | 0.064 | -0.118
56 | TAGCGT | -1.96 | 0.207 | -1.16 | -1.74 | -1.54
57 | TAGCAG | 0.673 | 0.218 | 0.475 | 0.542 | 0.533
58 | CGTCGC | -0.148 | 0.328 | 0.523 | -0.177 | -0.264
59 | GGCGAC | -0.27 | 0.02 | 0.867 | -0.269 | -0.307
60 | CCTTAA | -0.119 | -0.512 | -1.04 | -0.19 | -0.173
61 | TTCGCA | 0.482 | 0.318 | 0.318 | 0.438 | 0.234
62 | TGGAGT | 0.12 | 0.101 | 0.007 | 0.086 | 0.248
63 | GAATTA | 1.09 | -0.795 | -0.312 | 0.824 | 1.9
64 | TCTTGG | -0.429 | 0.649 | 0.104 | -0.288 | -0.203
65 | CAGAGC | -2.52 | 0.331 | -0.035 | -2.36 | -2.39
66 | TAGACA | 0.383 | 0.133 | 0.047 | 0.306 | 0.446
67 | TAGACC | -0.705 | -0.773 | -0.984 | -0.659 | -0.786
68 | TTTTGA | -0.055 | -0.01 | -0.401 | -0.089 | 0.373
69 | CGCAGT | -0.33 | 0.203 | 0.115 | -0.3 | -0.403
70 | TACCGA | -1.5 | -1.02 | -1.06 | -1.21 | -1.47
71 | TGGGCC | -0.694 | 0.11 | 0.078 | -0.477 | -0.529
72 | GCACTG | 0.511 | 0.289 | 0.862 | 0.392 | 0.074
73 | GTCCGG | 0.052 | -0.064 | 0.739 | 0.102 | 0.044
74 | TACCTA | -1.29 | -0.436 | -1.2 | -1.22 | -1.3
75 | CATTAG | 0.711 | 0.856 | 0.822 | 0.522 | 0.683
76 | AAGAGA | 0.412 | -1.59 | -0.86 | 0.162 | 1.03
77 | CGATTA | 0.387 | -0.543 | -0.391 | 0.313 | 0.591
78 | ATTGGT | -0.083 | 0.48 | 0.076 | -0.034 | 0.056
79 | TTATGC | 0.427 | 0.16 | -0.164 | 0.278 | 0.465
80 | CGCGAA | -0.85 | -0.967 | -0.479 | -0.728 | -0.79

From the supplement of paper PMC6531468
